# Data: PubChem BioAssay AID1346428 (National Center for Advancing Translational Sciences (NCATS), 2018)
# The whole screen tested about 48,000 compounds, of which about 1,200 (2.5%) were called active. Not shown: some 2% with an inconclusive outcome.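 How the source made its calls: active means activation of at least 60% and not above a set upper limit (about 1 call in 100 departs from these limits); inconclusive means activation of 40% to 60%, or above that upper limit; inactive means activation under 40%.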 Some of the results follow.
# Molecular target: Probable G-protein coupled receptor 32 (Homo sapiens) (UniProt O75388)
# Sequence of UniProt O75388 (O75388 whole entry, looked up): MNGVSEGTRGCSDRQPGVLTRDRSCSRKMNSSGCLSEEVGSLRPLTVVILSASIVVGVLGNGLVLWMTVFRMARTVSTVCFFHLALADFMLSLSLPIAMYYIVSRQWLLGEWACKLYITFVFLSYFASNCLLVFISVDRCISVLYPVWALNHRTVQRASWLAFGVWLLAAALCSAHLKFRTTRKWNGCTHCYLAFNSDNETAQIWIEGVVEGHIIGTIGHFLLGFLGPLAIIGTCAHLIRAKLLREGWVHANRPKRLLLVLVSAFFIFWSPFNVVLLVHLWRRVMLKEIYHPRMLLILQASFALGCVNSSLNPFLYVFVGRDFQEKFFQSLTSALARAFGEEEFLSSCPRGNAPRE
# Assay: qHTS for Agonists of Human Resolvin D1 Receptor DRV1; further: 0% is about no effect
# Conditions: CHO-K1 GPR32 beta-arrestin PathHunter luminescence, 90 min; at 76.9 µM; active compounds read high; zero percent set by DMSO-only wells
# How it was run: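 GPR32 activation in stably transfected CHO-K1 cells, detected as beta-arrestin recruitment by enzyme-fragment complementation. Compound exposure: 90 min, 37 °C.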
row,Compound,activation
1,COC(=O)c1ccc(-c2nc3cc(NC(C)=O)ccc3o2)cc1,inactive: -7.12%
2,O=C(OOC(=O)c1ccccc1)c1ccccc1,inactive: 40.8%
3,CCCCc1nn2c(=O)cc(COC(=O)C3CCCCC3)nc2s1,inactive: 7.73%
4,Cc1nc2nc(SCC(=O)NC3CCC(C)CC3)nn2c(C)c1Cc1ccccc1 (stereo not given),inactive: -19.1%
5,CCOc1ccc(OCC)c(NC(=O)c2ccc(-c3ccccc3)s2)c1,inactive: -6.71%
6,Cc1cccc(N2CCN(C(=O)c3ccc4c(c3)N(Cc3cccc(Cl)c3)C(=O)c3ccccc3S4=O)CC2C)c1 (stereo not given),inactive: -30.8%
7,CCOc1cccc2sc(N3CCN(C(=O)C4CC4)CC3)nc12,inactive: -20.9%
8,CCOc1ccc(CNC(=O)c2cc(=O)[nH]c3ccc(S(=O)(=O)N4CCCC4)cc23)cc1,inactive: -3.65%
9,COc1ccc(C(=O)Nc2nc3c(s2)CCCC3)cc1Cl,inactive: -20.8%
10,COc1ccc(Cl)cc1CNCCSc1nnnn1C,inactive: 21.9%
11,Cn1c(=O)c2c(-c3ccccc3)n3c(c2n(C)c1=O)C(c1ccco1)Nc1ccccc1-3 (stereo not given),inactive: 8.34%
12,CCOc1cccc(NC(=O)CSc2ncc(-c3ccccc3)[nH]2)c1,inactive: -14.8%
13,CCCn1cc(S(=O)(=O)c2ccc(CC)cc2)c(=O)c2cc(F)c(N(CC)CC)cc21,inactive: -7.52%
14,CC(=O)c1ccc(N2CCN(C(=O)CCCCn3c(=O)[nH]c4ccccc4c3=O)CC2)cc1,inactive: -1.8%
15,CCOc1ccc(NC(=O)c2ccc3c(c2)CCN3S(=O)(=O)c2ccc(Cl)cc2)cc1,inactive: 0.432%
16,Cc1cccc(Cn2c(=O)n(CCC(=O)NCCc3ccc(Cl)cc3)c(=O)c3sccc32)c1,inactive: -5.51%
17,Cc1ccc(NC(=O)CCC(=O)N2Cc3ccccc3Oc3ncccc32)cc1F,inactive: -10.3%
18,O=C(NCc1ccc(F)cc1)c1ccc2nc(N3CCCCC3)sc2c1,inactive: -10.5%
19,Fc1cccc(Cl)c1Cn1c(-c2cccs2)nc2ccccc21,inactive: -22.9%
20,COc1ccc(OC)c(CNC(=O)c2nn(C)c3c2CSc2ccccc2-3)c1,inactive: -16.9%
21,O=C(NCC(c1ccc2c(c1)OCO2)N1CCOCC1)C(=O)Nc1cccc(Cl)c1 (stereo not given),inactive: -7.01%
22,Cc1cc(-c2ccc(C)c(S(=O)(=O)NCC3CCN(Cc4ccc(F)cc4)CC3)c2)on1,inactive: -29.2%
23,O=C(O)c1c(CNCc2cccc(F)c2)c2ccccc2n1Cc1ccccc1,inactive: -3.47%
24,CC(=O)c1ccc(NC(=O)c2cc(S(=O)(=O)N3CCCCCC3)cn2C)cc1,inactive: 33.5%
25,COc1ccc(-c2nc3c(c(SCC(=O)Nc4ccccc4F)n2)Cc2cc(C)ccc2O3)cc1,inactive: -8.56%
26,Cc1ccc(NC(=O)CCCc2nnc3n(C)c(=O)c4sccc4n23)cc1F,inactive: -8.35%
27,CCCNC(=O)c1ccc2c(c1)sc1nc(-c3ccc(C)cc3)cn12,inactive: -4.25%
28,NC(=O)C1(N2CCCCC2)CCN(C(=O)Nc2ccc(F)cc2)CC1,inactive: 18.8%

row,Compound,activation
1,CCc1ccccc1NC(=O)CN1C(=O)c2ccccc2Sc2ncccc21,inactive: -4.39%
2,CC(O)Cn1cnc2c1c(=O)n(C)c(=O)n2C (stereo not given),inactive: -2.92%
3,CC1CCn2c(nc3cc(C(=O)NCc4ccccc4)ccc32)C1 (stereo not given),inactive: -6.15%
4,Cc1ccc(C)c(N2CCN(C(=O)C3CCCN(Cc4nc(-c5cccc(Cl)c5)oc4C)C3)CC2)c1 (stereo not given),inactive: 19.1%
5,O=C(CNC(=O)c1ccccc1)OCc1cc(=O)n2ccsc2n1,inactive: -14%
6,Cc1[nH]c2ccccc2c1C1(O)C(=O)N(Cc2ccccc2Cl)c2ccccc21 (stereo not given),active: 105%
7,COc1ccc(NC(=O)Cn2c(=O)n(-c3cccc(C(F)(F)F)c3)c(=O)c3sccc32)cc1,inactive: 22.8%
8,Cc1ccccc1NC(=O)[C@H](CSCc1ccccc1)N1Cc2ccccc2C1=O,inactive: -24.3%
9,CCc1ccc(S(=O)(=O)Nc2ccc(-c3ccc(N4CCCC4)nn3)cc2)cc1,inactive: 5.18%
10,O=C(NCC(c1ccc(Cl)cc1)N1CCCCC1)c1ccccc1F (stereo not given),inactive: -18.4%
11,COc1ccccc1N1CCN(C(=O)CSc2n[nH]c(-c3ccccc3Cl)n2)CC1,inactive: -0.906%
12,CCOc1ccc(OCC)c(NC(=O)CCc2nc3cccnc3n2-c2ccccc2)c1,inactive: -1.86%
13,COC1(C2=NCCN2)COc2ccccc2O1 (stereo not given),inactive: 2.85%
14,CCC1CN(C(=O)Nc2ccc(Br)cc2F)c2ccccc2S1 (stereo not given),inactive: -28.2%
15,COc1cc(OC)cc(C(=O)Nc2ccc3nc(Nc4cccc(C(F)(F)F)c4)cc(C)c3c2)c1,inactive: -9.34%
16,O=C(NCc1ccc(F)cc1)c1cnc(N2CCCCC2)c2ccccc12,inactive: -2.99%
17,CCCOc1ccc(CNC(=O)C2CCCN(c3nc4c(C)cc(C)cc4s3)C2)cc1 (stereo not given),inactive: 1.51%
18,C#CCn1c(C2CC(=O)N(c3ccc(OCC)cc3)C2)nc2ccccc21 (stereo not given),inactive: -15.4%
19,CCN(CC)C(=O)C1CCN(c2nnc(C)c3c(C)n(-c4ccc(Cl)cc4)nc23)CC1,inactive: 7.1%
20,Cc1cccc(NC(=O)c2ccc(F)c(S(=O)(=O)N3CCC4(CC3)OCCO4)c2)c1,inactive: -16.4%
21,COc1ccc(NC(=O)Cn2c(=O)n(CCCC(=O)NCCc3ccc(C)cc3)c(=O)c3ccccc32)cc1Cl,inactive: -20.1%
22,Cc1ccc(CCNC(=O)c2ccc3c(c2)N(Cc2ccccc2)C(=O)c2ccccc2S3=O)cc1 (stereo not given),inactive: -6.23%
23,COc1ccc(N2CCN(c3ncnc4onc(-c5ccc(F)cc5)c34)CC2)cc1,inactive: -31.4%
24,CC(C)c1ccc(C2c3c(-c4ccccc4O)n[nH]c3C(=O)N2Cc2ccncc2)cc1 (stereo not given),inactive: -7.37%
25,CCCCOC(=O)CSc1nnc(-c2ccc(C)cc2)o1,inactive: 7.03%
26,CC(C)Cn1c(=O)c2ccccc2n2c(CCC(=O)N3CCN(c4ccccc4)CC3)nnc12,inactive: -36.1%
27,COc1ccc(C(=O)Nc2nnc(C)s2)cc1,inactive: -9.46%
